The source gives no read counts; variants with many changes may rest on few reads.

Sequences and labels used below:
B1: CPEB3 Ribozyme (parent)
chain: UAACAGGGGGCCACAGCAGAAGCGUUCACGUCGCAGCCCCUGUCAGAUUCUGGUGAAUCUGCGAAUUCUGCUGUAUAUCUC

In this data set the parent is B1. The data set is described as follows: self-cleavage, relative activity (ratio to wild type); higher = more cleavage; in vitro, sequencing. Put shortly:
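For each CPEB3 ribozyme variant, relative activity is its cleaved/total read fraction divided by the unmutated ribozyme's. Barcoded error-prone PCR libraries were transcribed by T7 RNA polymerase (5 hours, 37°C) and held in DNase I for 15 min before an EDTA stop, with cleavage occurring throughout. Template-switching reverse transcription and Illumina sequencing were used to read the RNAs. A 5-read minimum applied, and results are the mean of three batches.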
Turning to UAACAGGGGGCCACGGCAGAAGCGUCCACGUCGCAGCCCCUGUCAGGUUCUGGUGAAUCUGCGAAUUCUGCUGUAUAUCUC [A15G U26C A47G], the self-cleavage worked out at 0.59. The value for UAACAGGGGGCCACGGCAGAAGCGUUCACGCCGCAGCCCCUGUCAGAUUCCGGUGAGUCUGCGAAUUCUGCUGUAUAUCUC [A15G U31C U51C A57G] was 0.23; that for UAACAGGGGGCCACGGCAGAAGCGUCCACGUCGCAGCCCCGGUCGGAUUCUUGUGAAUCUGCGUAUUCUGCUGUAUAUCUC [A15G U26C U41G A45G G52U A64U] was 0.07; that for UAACAGGGGGCCACGGCAGAAGCGUACACGUCGCAGCCCCUGUCAGAUUCUGGUGAAUCUGCGAAUUCCGCUGUAUAUCUC [A15G U26A U69C] was 0.15. In the case of UAACAGGGGGCCACGGCAGAAGCGUUCACGCCGCAGCUCCUGUCGGAUUCUGGUGAAUCUGCGAAUUCUGCUGUAUAUCUC [A15G U31C C38U A45G], the self-cleavage stood at 0.09. In the case of UAACAGGGGGCCACGGCAGAAGCGUACACGUCGCAGCCCCUGUCAGACUCUGGAGAAUCUGCGAAUUCUGCUGUAUAUCUC [A15G U26A U48C U54A], the self-cleavage is 0.37. Take UAACAGGGGGCCACGGCAGAAGCGUUCACGCCGCAGCCCCCGUCAGAAUCUGGUGAAUCUGCGUAUUCUGCUGUAUAUCCC [A15G U31C U41C U48A A64U U80C]: the self-cleavage is 0.06. The result for UAACAGGGGGCCACGGCAGAAGCGUUCACGUCGCAGCCCCAGUCAGAUUCUGGAGAAUCUGCGAAUUCUGCCGUAUAUCUC [A15G U41A U54A U72C] reads 0.06; that for UAACAGGGGGCCACGGCAGAAGCGUCCACGUCGCAGCCCCUGUCAGAUUCUGGUGAAUCUGCGUAUUCUGCUGUAUAUCUC [A15G U26C A64U], 0.24; that for UAACAGGGGGCCACGGCAGAAGCGCUCACGUCGCAGCCCCCGUCAGAUUCUCGUGAAUCUGCGAAUUCUGCUGCAUAUCUC [A15G U25C U41C G52C U74C], 0.09. On to UAACAGGGGGCCACGGCAGAAGCGUUCACGUCGCAGCCCCAGUCAGAUUCUGGUGGACCUGCGAAUUCCGCUGUAUAUCUC [A15G U41A A56G U58C U69C], for which the self-cleavage came out at 0.23. The value for UAACAGGGGGCCACGGCAGAAGCGUCCACGCCGCAGCCCCUGACAGAUUCUGGUGAAUCUGCGAAUUCUGCUGUAUAUCUC [A15G U26C U31C U43A] was 0.39. The result for UAACAGGGGGCCACGGCAGAAGCGUCCACGUCGCAGCCCCUGUCAGAUUCUGUUGGAUCUGCGAAUUCUGCUGUAUAUCUC [A15G U26C G53U A56G] reads 0.4; that for UAACAGGGGGCCACGGCAGAAGCGUCCACGUUGCGGCCCCUGUCAGAUUCUGGUGAAUCUGCGAAUUCUGCUGUAUAUCUC [A15G U26C C32U A35G], 0.13; that for UAACAGGGGGCCACGGCAGAAGCGCCCACGUCGCAGCCCCUGUCAGAUUCUGGUGAAUCUGCGAAUUCUGCUGUAUAUCUC [A15G U25C U26C], 0.29. Consider UAACAGGGGGCCACGGCAGAAGCGCUCACGUCGCAGCCCCUGUCAGAUUCUGGUGAAUCUGCGAAUGCUGCUGUAUAUCUC [A15G U25C U67G], for which the self-cleavage was determined as 0.08. The value for UAACAGGGGGCCACGGCAGAAGCGCUCACGUCGCAGCCCCUGUCAGAUUCCGGUGAAUCUGCGAAUUCUGCUGUAUAUCUC [A15G U25C U51C] was 0.12; that for UAACAGGGGGCCACGGCAGAAGCGUUCACGUCGCAGCCCCAGUCAGAUUCUGGUGUAUCUGCGGAUUCUGCUGUAUAUCUC [A15G U41A A56U A64G] was 0.17; that for UAACAGGGGGCCACGGCAGAAGCGUUCACGACGCAGCCCCUGCCAGAUUCUGGUGAAUCUGCGAAUUCUGCUGUAUAUCCC [A15G U31A U43C U80C] was 0.31. The value for UAACAGGGGGCCACGGCAGAAGCGUUCACGGCGCAGCCCCUGUCAGAUUCUGGAGAAUCUGCGAAUUCCGCUGUAUCACUC [A15G U31G U54A U69C A77C U78A] was 0.19; that for UAACAGGGGGCCACGGCAGAAGCGUUCACGCCGCAGCCCCUGUCGGAUUCUGGUGAAUCUGCGAAUUCAGCUGUAUAUCUC [A15G U31C A45G U69A] was 0.17; that for UAACAGGGGGCCACGGCAGAAGCGCUCACGUCGCAGCCCCUGUCAGAUUCUGGUGAAUCCGCGAAUUCUGCUGUAUAUCUC [A15G U25C U60C] was 0.44. Consider UAACAGGGGGCCACGGCAGAAGCGUUCACGACGCAGCCCCUGUCAGGUUCUGGUGAAUCUGCGAAUUCUGCCGUAUAUCUC [A15G U31A A47G U72C], for which the self-cleavage was 0.71.

In the case of UAACAGGGGGCCACGGCAGAAGCGUUCACGACGCAGCCCCUGUCAGAUUCUGGUGAGUCUGCGAAUUCUGCUGUAUAUCUC [A15G U31A A57G], the self-cleavage was found to be 0.23. As for UAACAGGGGGCCACGGCAGAAGCGUUCACGCCGCAGCCCCUGUCAGAUUCUGGUGAGUCUGUGAAUUCUGCUGUAUAUCUC [A15G U31C A57G C62U], the self-cleavage turned out to be 0.34. The value for UAACAGGGGGCCACGGCAGAAGCGCUCACGUCGCAGCCCCUGUCAGAUUCUGGUGAAUCCGCGGAUUCUGCUGUAUAUCUC [A15G U25C U60C A64G] was 0.23; that for UAACAGGGGGCCACGGCAGAAGCGUUCACGUCGCAGCCCCAGUCAGAAUCUGGUGAAUCUGUGAACUCUGCUGUACAUCUC [A15G U41A U48A C62U U66C U76C] was 0.06.

As for UAACAGGGGGCCACGGCAGAAGCGUACACGUCGCAGCCCCUGUCGGAUUCUGGUGAAUCUGCGAAUUCUGCUGUAUAUCUC [A15G U26A A45G], the self-cleavage turned out to be 0.94. The value for UAACAGGGGGCCACGGCAGAAGCGCUCACGUCGCAGCCCCUGUCAGAUUCUGGUGAAUCUGCGAAUUCUGCCGUAUAUCUC [A15G U25C U72C] was 0.47. Turning to UAACAGGGGGCCACGGCAGAAGCGCUCACGUCGCAGCCCCUGUCAGAUUCUGGUGAAUCUGCGAAUUCUGCAGUAUAUCUC [A15G U25C U72A], the self-cleavage came to 0.19.

With UAACAGGGGGCCACGGCAGAAGCGUCCAUGUCGCAGCCCCUGUCAGAUUCUGGUGAAUCUGCGAAUUCUGCUGUAUAUCUC [A15G U26C C29U], the self-cleavage was 0.31. For UAACAGGGGGCCACGGCAGAAGCGUUCACGACGCAGCCCCUGUCAGAUUCUGGCGAAUCCGCGAAUUCUGCUGUAUAUCUC [A15G U31A U54C U60C], the self-cleavage was found to be 0.34. As for UAACAGGGGGCCACGGCAGAAGCGUACACGUCGCAGCCCCUGUCAGAUUCUGGUGAAUCCGCGAAUUCUGCUGUAUAUCUC [A15G U26A U60C], the self-cleavage worked out at 0.3. With UAACAGGGGGCCACGGCAGAAGCGUACACAUCGCAGCCACCGUCAGAUUCUGGUGAGUCUGCGAAUCCUGCUGUAUAUCUC [A15G U26A G30A C39A U41C A57G U67C], the self-cleavage came out at 0.05.

The record behind these values is the RNAGym collection of RNA variant scans (doi:10.1093/nar/gkz1192).
